Test results published in the supplement of paper PMC4967469.
A lower IC50 marks a more sensitive line; fits outside the tested doses are given as limits. The AUC spans the tested range (256-fold, ending at the top dose) of the same fit; the more sensitive the line, the further below 1. For part of these data: Any top dose called inferred was derived from the fitted curves, not read from the paper. For part of these data: Drugs with an entry number were screened twice under separate entries, and the two screens often disagree.

What was measured:
Test in all cases: Viability of human cancer cell lines after 72 h of drug (GDSC screen)
BX-912 = compound: O=C(Nc1cccc(Nc2ncc(Br)c(NCCc3cnc[nH]3)n2)c1)N1CCCC1 [BX-912]; details: top dose 10.24 µM; top dose inferred
Description: (§1)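 Human cancer cell lines in 384-well plates, medium with 10% serum, drug for 72 h over a 256-fold dose range (nine 2-fold or five 4-fold steps up to the top dose). Adherent lines were fixed and stained with the nucleic acid dye Syto60, suspension lines read with resazurin; signal relative to control wells, capped at 0 and 100%. One two-parameter sigmoid per drug and line, fitted in a mixed model over all curves with the slope shared within a line.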

LAQ824 = compound: O=C(/C=C/c1ccc(CN(CCO)CCc2c[nH]c3ccccc23)cc1)NO [LAQ824]; details: top dose 1.024 µM; top dose inferred
Description: as §1

VNLG/124 = compound: CCCC(=O)OCc1ccc(OC(=O)/C=C(C)/C=C/C=C(C)/C=C/C2=C(C)CCCC2(C)C)cc1 [VNLG/124]; details: top dose 5.12 µM; top dose inferred
Description: as §1

HG-5-88-01 = compound: COc1cc(N2CCC(C(N)=O)CC2)ccc1Nc1nc(N)c(Cl)c(Nc2ccccc2S(=O)(=O)C(C)C)n1 [HG-5-88-01]; details: top dose 10 µM; top dose inferred
Description: as §1

OSI-930 = compound: O=C(Nc1ccc(OC(F)(F)F)cc1)c1sccc1NCc1ccnc2ccccc12 [OSI-930]; details: top dose 10.24 µM
Description: as §1

Bleomycin = compound: Cc1c(N)nc([C@H](CC(N)=O)NC[C@H](N)C(N)=O)nc1C(=O)N[C@H](C(=O)N[C@H](C)[C@@H](O)[C@H](C)C(=O)N[C@H](C(=O)NCCc1nc(-c2nc(C(=O)NCCC[S+](C)C)cs2)cs1)[C@@H](C)O)[C@@H](OC1OC(CO)C(O)C(O)C1OC1OC(CO)C(O)C(OC(N)=O)C1O)c1cnc[nH]1 [Bleomycin]
Description: as §1

Masitinib = compound: Cc1ccc(NC(=O)c2ccc(CN3CCN(C)CC3)cc2)cc1Nc1nc(-c2cccnc2)cs1 [Masitinib]; details: top dose 20 µM
Description: as §1

Tamoxifen = compound: CC/C(=C(\c1ccccc1)c1ccc(OCCN(C)C)cc1)c1ccccc1 [Tamoxifen]; details: top dose 5 µM
Description: as §1

Elesclomol = compound: CN(NC(=O)CC(=O)NN(C)C(=S)c1ccccc1)C(=S)c1ccccc1 [Elesclomol]; details: top dose 0.2 µM; top dose inferred
Description: as §1

NSC-87877 = compound: O=S(=O)(O)c1ccc2cc(N=Nc3cc(S(=O)(=O)O)c4cccnc4c3O)ccc2c1 [NSC-87877]; details: top dose 16 µM; top dose inferred
Description: as §1

[1] = top dose 50 µM, screen: GDSC drug entry 1378, top dose inferred
[2] = top dose 64 µM, screen: GDSC drug entry 190

| Cell Line | AUC (BX-912) | IC50 (BX-912) [µM] | AUC (LAQ824) | IC50 (LAQ824) [µM] | AUC (VNLG/124) | IC50 (VNLG/124) [µM] | AUC (HG-5-88-01) | IC50 (HG-5-88-01) [µM] | AUC (OSI-930) | IC50 (OSI-930) [µM] | AUC (Bleomycin; [1]) | IC50 (Bleomycin; [1]) [µM] | AUC (Bleomycin; [2]) | IC50 (Bleomycin; [2]) [µM] | AUC (Masitinib) | IC50 (Masitinib) [µM] | AUC (Tamoxifen) | IC50 (Tamoxifen) [µM] | AUC (Elesclomol) | IC50 (Elesclomol) [µM] | AUC (NSC-87877) | IC50 (NSC-87877) [µM] |
| --- | --- | --- | --- | --- | --- | --- | --- | --- | --- | --- | --- | --- | --- | --- | --- | --- | --- | --- | --- | --- | --- | --- |
| EW-16 (Ewing sarcoma, adherent) | 0.883 | > 10.2 | 0.311 | 0.0184 | 0.893 | > 5.12 | 0.726 | 2.84 | 0.952 | > 10.2 | 0.364 | 1.29 | 0.052 | < 0.25 | 0.87 | > 20 | 0.973 | > 5 | 0.244 | 0.0022 | 0.981 | > 16 |
| EW-24 (Ewing sarcoma, semi-adherent) | 0.993 | > 10.2 | 0.864 | 0.721 | 0.987 | > 5.12 | 0.883 | 8.49 | 0.976 | > 10.2 | 0.786 | 18.9 | 0.892 | 59.6 | 0.929 | > 20 | 0.991 | > 5 | 0.973 | > 0.2 | 0.983 | > 16 |
| FADU (head and neck, adherent) | 0.944 | > 10.2 | 0.62 | 0.135 | 0.981 | > 5.12 | 0.972 | > 10 | 0.976 | > 10.2 | 0.702 | 11.3 | 0.484 | 3.63 | 0.957 | > 20 | 0.954 | > 5 | 0.312 | 0.0038 | 0.982 | > 16 |
| FTC-133 (thyroid, adherent) | 0.986 | > 10.2 | 0.545 | 0.0859 | 0.982 | > 5.12 | 0.947 | > 10 | 0.977 | > 10.2 | 0.821 | 32.8 | 0.303 | 1.05 | 0.941 | > 20 | 0.954 | > 5 | 0.623 | 0.0283 | 0.984 | > 16 |
| Farage (B-cell lymphoma, suspension) | 0.769 | 3.2 | 0.37 | 0.0301 | 0.993 | > 5.12 | 0.989 | > 10 | 0.868 | 6.64 | 0.992 | > 50 | 0.154 | 0.462 | 0.892 | 16.1 | 0.992 | > 5 | 0.608 | 0.0234 | 0.992 | > 16 |
| G-401 (kidney, adherent) | 0.864 | > 10.2 | 0.338 | 0.0216 | 0.947 | > 5.12 | 0.85 | 8.79 | 0.934 | > 10.2 | 0.099 | < 0.195 | 0.471 | 3.3 | 0.878 | > 20 | 0.979 | > 5 | 0.421 | 0.00742 | 0.984 | > 16 |
| G-MEL (melanoma, adherent) | 0.915 | > 10.2 | 0.592 | 0.114 | 0.983 | > 5.12 | 0.973 | > 10 | 0.917 | > 10.2 | 0.715 | 12.6 | 0.685 | 13.1 | 0.828 | 12.1 | 0.985 | > 5 | 0.304 | 0.00354 | 0.871 | 14.7 |
| GAK (melanoma, adherent) | 0.988 | > 10.2 | 0.481 | 0.0571 | 0.986 | > 5.12 | 0.945 | > 10 | 0.979 | > 10.2 | 0.818 | 26.4 | 0.855 | 47.2 | 0.977 | > 20 | 0.987 | > 5 | 0.938 | > 0.2 | 0.987 | > 16 |
| GB-1 (glioma, adherent) | 0.939 | > 10.2 | 0.378 | 0.0278 | 0.972 | > 5.12 | 0.923 | > 10 | 0.977 | > 10.2 | 0.616 | 6.91 | 0.244 | 0.625 | 0.951 | > 20 | 0.971 | > 5 | 0.41 | 0.00677 | 0.972 | > 16 |
| GI-1 (glioma, adherent) | 0.772 | 3.8 | 0.478 | 0.0558 | 0.98 | > 5.12 | 0.921 | > 10 | 0.97 | > 10.2 | 0.307 | 0.925 | 0.314 | 1.24 | 0.87 | 17.2 | 0.983 | > 5 | 0.458 | 0.00964 | 0.986 | > 16 |
| GI-ME-N (neuroblastoma, adherent) | 0.644 | 1.86 | 0.411 | 0.0333 | 0.889 | > 5.12 | 0.664 | 2.13 | 0.921 | > 10.2 | 0.173 | 0.209 | 0.284 | 0.773 | 0.783 | 11.8 | 0.956 | > 5 | 0.877 | > 0.2 | 0.977 | > 16 |
| GR-ST (lymphoblastic leukaemia, suspension) | 0.82 | 7.55 | 0.493 | 0.0611 | 0.968 | > 5.12 | 0.77 | 4.62 | 0.913 | > 10.2 | 0.887 | > 50 | 0.751 | 25.1 | 0.646 | 3.46 | 0.909 | > 5 | 0.869 | > 0.2 | 0.978 | > 16 |
